{"source": "patent US20250019450A1", "about": "(DIAGONAL THERAPEUTICS, published 2025)", "binders": {"B1": {"name": "DGL428 (bispecific antibody, human IgG1, lambda)", "heavy 1": "QVQLVESGGGLAQAGGSLRLSCAASGRTFSNDDMAWFRQAPGKEREFVAHIDRNAASTNYADSVKGRFTISRDNAKNTVYLQMTRLKPEDTAVYYCAADPDHFGTTWYQQYTYWGPGTQVTV[human IgG1 Fc with C220S L234A L235A G237A S354C T366W (EU numbers) omitted]", "heavy 2": "[about 120 residues omitted]ASTKGPSVFPLAPSSKSTSGGTAALGCLVKDYFPEPVTVSWNSGALTSGVHTFPAVLQSSGLYSLSSVVTVPSSSLGTQTYICNVNHKPSNTKVDKKVEPKSCDKTHTCPPCPAPEAAGAPSVFLFPPKPKDTLMISRTPEVTCVVVDVSHEDPEVKFNWYVDGVEVHNAKTKPREEQYNSTYRVVSVLTVLHQDWLNGKEYKCKVSNKALPAPIEKTISKAKGQPREPQVCTLPPSRDELTKNQVSLSCAVKGFYPSDIAVEWESNGQPENNYKTTPPVLDSDGSFFLVSKLTVDKSRWQQGNVFSCSVMHEALHNRFTQKSLSLSPG", "light": "not shown", "notes": "97B1 x 85802_10D03A"}}, "key": {"[1]": {"biological_target": "human IL-12 receptor (IL-12Rβ1 and IL-12Rβ2) on HEK-Blue IL-12 cells (human, UniProt P42701 24-662; Q99665 24-862)", "assay": "cell-based or functional assay"}, "[2]": {"biological_target": "T1, human IL-12Rβ2, Acro (BLI analyte) (human, UniProt Q99665 24-622, limits assumed)", "T1 sequence (looked up)": "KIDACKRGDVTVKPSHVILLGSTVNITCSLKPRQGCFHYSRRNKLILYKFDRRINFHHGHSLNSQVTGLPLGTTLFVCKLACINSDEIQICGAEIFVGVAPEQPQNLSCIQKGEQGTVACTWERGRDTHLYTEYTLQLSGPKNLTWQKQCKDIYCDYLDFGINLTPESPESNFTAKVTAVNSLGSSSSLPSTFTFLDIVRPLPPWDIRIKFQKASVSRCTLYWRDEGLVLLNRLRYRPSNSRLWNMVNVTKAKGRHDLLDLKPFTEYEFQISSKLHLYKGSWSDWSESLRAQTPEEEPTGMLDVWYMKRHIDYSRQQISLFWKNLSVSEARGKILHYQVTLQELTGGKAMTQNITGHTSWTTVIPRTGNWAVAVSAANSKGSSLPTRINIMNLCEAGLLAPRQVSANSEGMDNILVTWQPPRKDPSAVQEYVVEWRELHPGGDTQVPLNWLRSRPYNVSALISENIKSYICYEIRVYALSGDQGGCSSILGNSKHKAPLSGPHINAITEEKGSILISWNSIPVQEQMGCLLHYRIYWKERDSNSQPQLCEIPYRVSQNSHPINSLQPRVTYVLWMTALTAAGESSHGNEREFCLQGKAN", "assay": "BLI (Octet), antibody on AHC tip"}}, "data": [{"binder": "B1", "values": [{"measurement": "EC50", "setting": "[1]", "value": "8.8e-10 M (implied)"}, {"measurement": "Max Absorbance", "setting": "[1]", "value": 1.03}, {"measurement": "Kd", "setting": "[2]", "value": 1.97, "unit": "nM"}]}]}
